Data on 20 molecules can be found in paper PMC9911399, “Two distinct binding modes provide the RNA-binding protein RbFox with extraordinary sequence specificity”.

B1: CCAUACG (DNA:RNA)
RNA: GGGAGACCGGAAUUCAGAUUGUCCCCAUACGUUAAAUCCCGUCGUAGCCACCA
DNA 1: CAATCTGAATTCCGGTCTCCC
DNA 2: TGGTGGCTACGACGGGATT
B2: GAACAAA (DNA:RNA)
RNA: B1 RNA with C25G, C26A, U28C, C30A, G31A
DNA 1: CAATCTGAATTCCGGTCTCCC
DNA 2: TGGTGGCTACGACGGGATT
B3: AGUACGC (DNA:RNA)
RNA: GGGAGACCGGAAUUCAGAUUGUCCAGUACGCUUAAAUCCCGUCGUAGCCACCA
DNA 1: CAATCTGAATTCCGGTCTCCC
DNA 2: TGGTGGCTACGACGGGATT
B4: CUGGUUC (DNA:RNA)
RNA: B3 RNA with A25C, G26U, U27G, A28G, C29U, G30U
DNA 1: CAATCTGAATTCCGGTCTCCC
DNA 2: TGGTGGCTACGACGGGATT
B5: GGGUUGG (DNA:RNA)
RNA: B3 RNA with A25G, U27G, A28U, C29U, C31G
DNA 1: CAATCTGAATTCCGGTCTCCC
DNA 2: TGGTGGCTACGACGGGATT
B6: GUCAUUC (DNA:RNA)
RNA: B3 RNA with A25G, G26U, U27C, C29U, G30U
DNA 1: CAATCTGAATTCCGGTCTCCC
DNA 2: TGGTGGCTACGACGGGATT
B7: AGGAGGC (DNA:RNA)
RNA: B3 RNA with U27G, C29G
DNA 1: CAATCTGAATTCCGGTCTCCC
DNA 2: TGGTGGCTACGACGGGATT
B8: UCUCGAC (DNA:RNA)
RNA: B3 RNA with A25U, G26C, A28C, C29G, G30A
DNA 1: CAATCTGAATTCCGGTCTCCC
DNA 2: TGGTGGCTACGACGGGATT
B9: GUCCGAC (DNA:RNA)
RNA: B3 RNA with A25G, G26U, U27C, A28C, C29G, G30A
DNA 1: CAATCTGAATTCCGGTCTCCC
DNA 2: TGGTGGCTACGACGGGATT
B10: GAUACGC (DNA:RNA)
RNA: B3 RNA with A25G, G26A
DNA 1: CAATCTGAATTCCGGTCTCCC
DNA 2: TGGTGGCTACGACGGGATT
B11: GCGACCC (DNA:RNA)
RNA: B3 RNA with A25G, G26C, U27G, G30C
DNA 1: CAATCTGAATTCCGGTCTCCC
DNA 2: TGGTGGCTACGACGGGATT
B12: AGCAGCU (DNA:RNA)
RNA: B3 RNA with U27C, C29G, G30C, C31U
DNA 1: CAATCTGAATTCCGGTCTCCC
DNA 2: TGGTGGCTACGACGGGATT
B13: ACCACUA (DNA:RNA)
RNA: B3 RNA with G26C, U27C, G30U, C31A
DNA 1: CAATCTGAATTCCGGTCTCCC
DNA 2: TGGTGGCTACGACGGGATT
B14: CUUGACA (DNA:RNA)
RNA: B1 RNA with C26U, A27U, U28G, G31A
DNA 1: CAATCTGAATTCCGGTCTCCC
DNA 2: TGGTGGCTACGACGGGATT
B15: UUUACUU (DNA:RNA)
RNA: B3 RNA with A25U, G26U, G30U, C31U
DNA 1: CAATCTGAATTCCGGTCTCCC
DNA 2: TGGTGGCTACGACGGGATT
B16: CGGCAAU (DNA:RNA)
RNA: B1 RNA with C26G, A27G, U28C, C30A, G31U
DNA 1: CAATCTGAATTCCGGTCTCCC
DNA 2: TGGTGGCTACGACGGGATT
B17: AGAUAGC (DNA:RNA)
RNA: B3 RNA with U27A, A28U, C29A
DNA 1: CAATCTGAATTCCGGTCTCCC
DNA 2: TGGTGGCTACGACGGGATT
B18: CUCAUGG (DNA:RNA)
RNA: B3 RNA with A25C, G26U, U27C, C29U, C31G
DNA 1: CAATCTGAATTCCGGTCTCCC
DNA 2: TGGTGGCTACGACGGGATT
B19: AGACAGA (DNA:RNA)
RNA: B3 RNA with U27A, A28C, C29A, C31A
DNA 1: CAATCTGAATTCCGGTCTCCC
DNA 2: TGGTGGCTACGACGGGATT
B20: AGCAGAU (DNA:RNA)
RNA: B3 RNA with U27C, C29G, G30A, C31U
DNA 1: CAATCTGAATTCCGGTCTCCC
DNA 2: TGGTGGCTACGACGGGATT

Numbering of substitutions follows the chain as printed; changes in the protein carry UniProt numbers. The list shows a part of the results.

This assay addresses T1, RBFOX1 RRM RbFoxmut (Fox-RRM*) (Homo sapiens, UniProt Q9NWB1 109-208, R118D;E147R;N151S;E152T).
T1 sequence: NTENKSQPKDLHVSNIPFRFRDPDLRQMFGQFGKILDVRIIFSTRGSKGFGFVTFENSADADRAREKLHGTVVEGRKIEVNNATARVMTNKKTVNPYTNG
Description: EMSA; HiTS-Eq, 1 nM pool, 10 min; buffer printed only for the single-RNA assays: 10 mM Tris pH 7.5, 150 mM NaCl, 3.4 mM EDTA, 0.001% NP-40, 30 C. The note with it: tags: His6 N-terminal (pET28a); label: 5' 32P. In short, it runs like this: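 Purified RbFox RRM (wild type or mutant) was equilibrated for 10 min in 50 µL with 1 nM of a 5′-radiolabelled pool of RNA with 7 randomized nucleotides, its flanks annealed to DNA oligonucleotides, across increasing protein concentrations. Free RNA was separated by 8% native PAGE, excised, reverse-transcribed, PCR-barcoded and sequenced on an Illumina HiSeq 2500. Relative association constants came from read-count changes of each variant against the control reaction, normalised to the cognate motif.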
(In general: A gel shift assay detects complexes by their altered migration in electrophoresis.)
Take B1: the binding signal is 0.102 KA relative to UGCAUGU.

Take B2: the binding signal is 0.0875 KA relative to UGCAUGU.

With B3, the binding signal was 0.0766 KA relative to UGCAUGU.

With B4, the binding signal was 0.2 KA relative to UGCAUGU.

B5: the binding signal was 0.336 KA relative to UGCAUGU.

With B6, the binding signal was 0.0653 KA relative to UGCAUGU.

On to B7, for which the binding signal was 0.118 KA relative to UGCAUGU.

For B8, the binding signal is 0.0649 KA relative to UGCAUGU.

B9: the binding signal was 0.0921 KA relative to UGCAUGU.

B10: the binding signal was 0.0785 KA relative to UGCAUGU.

In the case of B11, the binding signal was 0.0575 KA relative to UGCAUGU.

With B12, the binding signal was 0.0917 KA relative to UGCAUGU.

For B13, the binding signal is 0.116 KA relative to UGCAUGU.

Take B14: the binding signal was 0.0599 KA relative to UGCAUGU.

B15: the binding signal is 0.0978 KA relative to UGCAUGU.

Consider B16, for which the binding signal was 0.053 KA relative to UGCAUGU.

As for B17, the binding signal is 0.0863 KA relative to UGCAUGU.

In the case of B18, the binding signal was 0.116 KA relative to UGCAUGU.

For B19, the binding signal is 0.0824 KA relative to UGCAUGU.

In the case of B20, the binding signal was 0.101 KA relative to UGCAUGU.
